Laboratory results taken from PubChem BioAssay (NCI).
“And” between values parts separate entries of the source, which are not always exact repeats. Equal values may be shown once.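 These data come from cells grown in 96-well plates and exposed to compound for 48 hours at five concentrations. Here, GI50 denotes the concentration required for 50% inhibition of growth. TGI: total growth inhibition.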

The molecules below were run on NCI-H322M lung (assay: DTP human tumour cell line panel, 48 h).
`CCC(=O)O[C@H]1CC[C@H]2[C@@H]3CCC4=C/C(=N/NC(=O)c5cccc6c(=O)c7ccccc7[nH]c56)CC[C@]4(C)[C@H]3CC[C@]12C` showed a TGI of over 25 µM. With `COC(=O)c1c(C)cccc1/C=C1\Cc2cc(C)cc(C)c2C1=O` the TGI was over 100 µM. `COc1cccc(C(=O)C2C(=O)N(C)CCc3ccccc32)c1OC` (stereo not given) was tested, and the TGI was over 100 µM. With `COc1cc(-c2cn(-c3ccc(Cl)cc3)c(C)c2C(=O)C(F)(F)F)cc(OC)c1OC` the GI50 was over 100 µM and the TGI was over 100 µM. `O=C(CSCC(=O)N/N=C\c1ccc(-c2ccccc2)cc1)N/N=C\c1ccc(-c2ccccc2)cc1` showed a TGI of 55.2 µM. Work on `CC(C)(Br)C1(O)CCCN1C(=O)c1ccccc1` (stereo not given) yielded a TGI of over 100 µM. `CC(=O)Nc1ccc2c3c(cc(O)c2c1)N(C(=O)CCCCC(=O)Nc1ccc2c4c(cc(O)c2c1)N(C(=O)OC(C)(C)C)CC4CCl)CC3CCl` (stereo not given) showed a TGI of 37.2 µM. `C=C1CC[C@@H]2[C@](C)(COC(C)=O)[C@H](OC(C)=O)CC[C@@]2(C)[C@@H]1CC(Nc1ccc(S(=O)(=O)Nc2nccc(C)n2)cc1)C1=CCOC1=O` (stereo not given in full) gave a GI50 of 11.3 µM and a TGI of 23.9 µM. In the case of `Cc1nc2sc(C(=O)Nc3ccccc3)c(N)c2cc1C(=O)/C=C/c1ccccc1`, the GI50 is reported as 2.32 µM and the TGI is reported as 5.99 µM. `CC(C)=CCC/C(C)=C/CC/C(C)=C/CC/C(C)=C/CC/C(C)=C\CC/C(C)=C/CC/C(C)=C/CC/C(C)=C/Cc1cc(O)ccc1O` showed a TGI of 32.6 µM. For `C1=C\CCCCN2C[C@H]3CCCC/C=C\CCCCN4CC[C@@H]([C@H](CCCCCC/1)C4)[C@H](C3)C2`, the TGI was 4.99 µM. Work on `COC(=O)c1c(C)cccc1CC1Cc2c(C)cccc2C1=O` (stereo not given) yielded a TGI of over 100 µM. With `COc1ccc(-c2cn(-c3ccccc3)c(-c3ccccc3)n2)cc1OC` the GI50 was 10.6 µM and the TGI was 26.7 µM. `CN(C)Cc1cc(N=Nc2ccccc2)cc(CN(C)C)c1O` gave a TGI of over 100 µM. `COc1cc(CNc2ccc(C(C)C)cc2)cc(OC)c1OC` showed a TGI of over 100 µM. Molecule `O=c1oc2ccccc2n1CCN1CCCCC1` has a TGI of over 100 µM. `COc1cc(C2c3cc4c(cc3[C@@H](Nc3cccc(C(C)=O)c3)C3COC(=O)[C@H]23)OCO4)cc(OC)c1O` (stereo not given in full) was tested, and the TGI was 57.4 µM. With `COc1cccc(C2c3cc4c(cc3OC(O)(CO)C2C(=O)O)OCO4)c1` (stereo not given) (tested in a mixture with another compound) the TGI was over 100 µM. Molecule `CC12CCC(=O)C=C1CCC1C2C(O)CC2(C)C(c3csc(N)n3)CCC12` (stereo not given) has a TGI of over 100 µM. `Cn1c(-c2cccs2)cc(-c2cccs2)c1-c1ccsc1` showed a TGI of over 100 µM. In the case of `CC1C[C@]2(C)C(=O)N(c3ccccc3)C(=N)[C@@H]2N(C)c2ccccc21` (stereo not given in full), the TGI is reported as over 100 µM. Work on `CC(=O)Nc1ccc2c(c1)oc(=O)c1cc(NC(C)=O)ccc12` yielded a GI50 of 57.8 µM and a TGI of over 100 µM. Work on `CCC(CCCC[C@@H]1CC[C@H]2CC(=O)C[C@@H]12)OC` (stereo not given in full) yielded a TGI of over 100 µM. For `COc1cc(Cn2c3c(c4c(C(=O)NCCN(C)C)c(O)ccc42)C(=O)c2ccccc2C3=O)cc(OC)c1`, the TGI was 3.18 µM. `CC(=O)Nc1ccc2[nH]c(-c3cccc(F)c3)cc(=O)c2c1` was tested, and the TGI was over 100 µM. For `CC(C)=CCSC1CC2C(CC1(C)O)C2(C)C` (stereo not given), the TGI was 30.1 µM and 28.9 µM. For `CCN(Cc1ccccc1OC)c1ccc(CO)c(Cl)c1`, the GI50 was 9.36 µM and the TGI was 23.2 µM. `CCCCCCCCCCCCCC(=O)CBr` gave a TGI of 36.1 µM. Molecule `CCO/N=[N+](\[O-])N(CC)CC` has a TGI of over 100 µM. In the case of `Cc1cc(=O)oc2cc3c(cc12)Oc1ccccc1O3`, the TGI is reported as over 100 µM. Work on `Brc1ccc2[nH]cc(-c3nc(-c4c[nH]c5ccccc45)cs3)c2c1` yielded a TGI of 9.67 µM. With `CN(CCOc1ccc(C#N)cc1)CCOc1ccc(C#N)cc1` the GI50 was over 100 µM and the TGI was over 100 µM. In the case of `CCOc1cc(NC(C)=O)ccc1C(=O)NN1C(=O)/C(=C/c2cc(OC)c(OC)c(OC)c2)N=C1c1ccccc1`, the TGI is reported as over 100 µM. `C#CC[C@@H]1C[C@]2(C)[C@H]3CC=C4[C@H]5CC(C)(C)CC[C@]5(C(=O)NCCCCN)CC[C@@]4(C)[C@]3(C)CC[C@H]2C(C)(C)[C@H]1OC(C)=O` showed a GI50 of 1.63 µM and a TGI of 2.99 µM. With `COC(=O)CNC(=O)[C@@H](OC)[C@@H]1Cc2cc3cc(OC4CC(OC5CC(O)C(O)C(C)O5)C(O)C(C)O4)c(C)c(O)c3c(O)c2C(=O)[C@H]1OC1CC(OC2CC(OC3CC(C)(O)C(O)C(C)O3)C(O)C(C)O2)C(O)C(C)O1` (stereo not given in full) the GI50 was 0.196 µM and the TGI was over 50 µM. With `CCOC(=O)C(=O)Nc1c(C)cccc1C` the TGI was over 100 µM. `COc1ccc(O)c(C#N)c1C#N` was tested, and the TGI was over 100 µM. `CCOc1ccc(NCc2cc(OC)c(OC)c(OC)c2)cc1` was tested, and the TGI was over 100 µM. Work on `NC(=O)N1N=C2c3ccccc3SC[C@H]2[C@@H]1c1ccccc1` yielded a TGI of over 100 µM. For `CCOC(=O)CCC(NC(=O)c1ccc(N2CCN(c3c(C)nc(N)nc3N)CC2)cc1)C(=O)OCC` (stereo not given), the TGI was over 100 µM. With `CCCCCCCCCCCCCCCC(=O)OCC1OC(n2c(O)c(N=NC(N)=S)c3ccc([N+](=O)[O-])cc32)C(OC(C)=O)C1OC(C)=O` (stereo not given) the TGI was over 100 µM. With `CC[C@@H](/C=C\CCC1(C[C@H](O)CCC=C(C)C)OCCO1)O[Si](C(C)C)(C(C)C)C(C)C` the TGI was over 100 µM. With `Cc1cc(C(C#N)c2ccc(Cl)cc2)c(Cl)cc1NC(=O)c1cc(I)cc(I)c1O` (stereo not given) the GI50 was 4.13 µM and 12.4 µM and the TGI was 15 µM and 24.9 µM. For `NCc1ccccc1C1CSCSC1`, the TGI was over 100 µM. In the case of `C=C1C(=O)OC2C1CC(O)/C(C)=C\CCC1(C)OC21` (stereo not given), the TGI is reported as over 100 µM. `Cn1c(-c2ccc(/C=N\N3CCN(/N=C/c4ccc(-c5c[n+]6ccccc6n5C)cc4)CC3)cc2)c[n+]2ccccc12` gave a TGI of over 100 µM. In the case of `CCOC(=O)C(NC(=O)Nc1ccc(Cl)c(Cl)c1)C(F)(F)F` (stereo not given), the TGI is reported as over 100 µM. With `C[C@H]1[C@H](C)CC[C@]2(C(=O)O)CC[C@]3(C)C(=CC[C@@H]4[C@@]5(C)C/C(=C/c6cccnc6)[C@H](O)C(C)(C)[C@@H]5CC[C@]43C)[C@H]12` the GI50 was 16.2 µM and the TGI was 69.3 µM. With `CSc1nc2c(nc(N)n2C2OCC(O)C(O)C2O)c(=O)n1C` (stereo not given) the TGI was over 100 µM.
